# From the supplement of paper PMC10338343
# ± gives the standard deviation. Whole data set: some 6,600 sequences, median “pre-steady-state target cleavage rate” near 0.07, cut for the highest 2% near 0.72. Only a part is listed here, and it is no random draw.
# Tested on: MIWI (PIWIL1) piRISC loaded with Kctd7 piRNA (30 nt)
# Experiment: pre-steady-state target cleavage rate (min^-1); MIWI and MILI are mouse PIWI proteins and EfPiwi is from a freshwater sponge; tags in brackets are library labels; higher = faster piRNA-guided slicing of the target
# Conditions: guide: Kctd7 piRNA 5'p-UGUUAAUCUCUCAGAGAAGGUGACAGUGAU; auxiliary factor: 500 nM mouse GTSF1
# Outline: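 Sequencing of uncleaved targets, normalised to depth and to weakly complementary targets, was the readout of this Cleave-'n-Seq assay. A transcribed, DNA-blocked target RNA library (0.1 nM) was mixed with 1 nM active affinity-purified piRISC carrying one synthetic guide, with or without 500 nM GTSF1 partner protein, in HEPES–potassium acetate buffer at 33 °C for 0–8 or 0–960 min. Three trials were pooled, k3 was capped at 0.0001 min^-1, and a burst-and-steady-state fit gave the pre-steady-state cleavage rate.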
row,Sequence,pre-steady-state target cleavage rate
1,UAGUCUGGCACCUUCUCUGAGAGAUUAACA,0.177 ± 0.035
2,UAGUGAGUCACGUUCUCUGUGAGAUUAACA,0.18 ± 0.016
3,UAGUGAGUCACCUUCUCUGAGAGAUGUAACA,0.388 ± 0.047
4,UAGUGACACACCUUCAGAGAGAGAUUUUGA,0.00535 ± 0.0047
5,UAGUGAGUCAGCUUCUCUGAGAGAUAAACA,0.339 ± 0.028
6,UAGUGUGUCACCGUCUCUGAGAGAUUAACA,0.396 ± 0.042
7,UAGUGUGUCACCUUCUCUGAGAGAAUUACA,0.173 ± 0.044
8,UUCAGUGUCACCUUCUCUGAGAGAUUAAGA,0.126 ± 0.029
9,UAGUGUGUCACCUUCUCUGAGACAUUAACA,0.218 ± 0.028
10,UUCAGUGUCACGUUCUCUGAGAGAUUAACA,0.599 ± 0.029
11,UAGUGACAGUGGAAGAGACAGUGUUUAACA,< 0.0001
12,UAGUGAGUCACCAACUCUGAGAGAUUAAGA,0.0223 ± 0.0065
13,UAGUGUCUCACCUUCUCUGAGAGAAUAACA,0.26 ± 0.04
14,UAGUGUGUCACCUUCUCUGAGUGAUAAACA,0.0164 ± 0.0068
15,UAGUGAGUCACGUUCUCUGAGAGAUUUUGA,0.00437 ± 0.0032
16,UAGUGAGUCACCUUCUCACAGAGAUUAACA,0.0117 ± 0.0028
17,UAGUGACAGUGGAACUCUGAGAGAUUAAUCA,< 0.0001
18,UACACUGUCUCCUUCUCUGAGAGAUUAACA,0.599 ± 0.034
19,UAGUGUGUCACCUUCUCUGAGAGACUAACA,0.288 ± 0.055
20,UAGACUGUCACCUUCUGUGAGAGAUUAACA,0.648 ± 0.038

row,Sequence,pre-steady-state target cleavage rate
1,UACACUGUCAGCUUCUCUCAGAGAUUAACA,0.0908 ± 0.01
2,UAGUGUGUCACCAUUCUCUGAGAGAUUAACA,0.508 ± 0.036
3,AUCACUGUCACCUUCUCUGAGUGAUUAACA,0.0525 ± 0.0086
4,UAGUGACUCACCUUCUCUGAGACAUUAUCA,0.0265 ± 0.0081
5,AUCACUGAGUCCUUCUCUGAGAGAUUAACA,0.489 ± 0.035
6,AUCACUGUCACCUUCUCUGAGAGAUUAAGA,0.183 ± 0.026
7,UACAGUGUCACCUUCUCUGAGAGAAUAACA,0.479 ± 0.09
8,UAGUGACUCACCGUUCUCUGAGAGAUUAACA,0.16 ± 0.019
9,UAGUGUUCACCUUCUCUGAGAGAUUAACA,0.454 ± 0.026
10,AACACUGUCACCUUCUCUGAGAGAUUAUCA,0.303 ± 0.037
11,UAGUGAGUGUCCUUCUCUGAGAGAUUAUGA,0.00701 ± 0.003
12,AUCACUGUCAGCUUCUCUGAGAGAUUAUCA,0.251 ± 0.034
13,UAGUGACACACCUUGCUCUGAGAGAUUAACA,0.0571 ± 0.011
14,UAGACGGUCACCUUCUCUGAGAGAUUAACA,0.671 ± 0.028
15,UAGUGACACAGCUUCUCUGAGUGAUUAACA,0.00956 ± 0.0033
16,AUCACUGACACCUUCUCUGAGACAUUAACA,0.206 ± 0.025
17,UAGUGACACACGCUUCUCUGAGAGAUUAACA,0.189 ± 0.021
18,AUCACUGUCACCUUCUCUGAGACAUUAUCA,0.0223 ± 0.0079
19,UUCACUCACACCUUCUCUGAGAGAUUAUGA,0.1 ± 0.023
20,UUCACUGUCAGCUUCUCUGAGAGAAUAACA,0.229 ± 0.037
